Laboratory results published in PubChem BioAssay AID463173 (ICCB-Longwood Screening Facility, Harvard Medical School, 2010).
About 1,700 (3.3%) of roughly 52,000 compounds were called active. Cut-off read from the data, not from the text of the source: active = survival mostly below about 52% (no sharp cut-off); inactive = mostly above about 56%. The list shows a part of the results.

Tested on: Wild type
Experiment: S. aureus survival, RN4220 and DeltatarO strains – OD600, teichoic acid synthesis inhibitors, primary screen (AID 463173)
Conditions: S. aureus RN4220 wild type/DeltatarO growth, OD600, 18 h, stronger effect = lower value, screened at 18.75 µg/mL (by protocol)

| Structure (SMILES) | survival |
| --- | --- |
| COc1cccc(C2C(C(=O)Nc3ccc(Cl)cc3)=C(C)Nc3c(C(=O)Nc4ccccc4)cnn32)c1OC (stereo not given) | inactive: 93% |
| O=C(CN(Cc1ccccc1F)C(=O)c1ccco1)NCc1ccc(F)cc1 | inactive: 103% |
| CC1(C(=O)NC2CCCCC2)Cc2ccccc2C(=O)N1Cc1ccc(Cl)cc1 (stereo not given) | inactive: 89% |
| COc1ccc(/C=C/C(=O)Nc2ccc3nc(N4CCC(C)CC4)cc(C)c3c2)cc1OC | inactive: 74% |
| Cc1c(C)n(Cc2ccc(F)cc2)c2ccc(C(=O)N3CCN(c4ccc(Cl)cc4)CC3)cc12 | inactive: 72% |
| Cn1c(=O)c2c(nc(SCC(=O)Nc3ccc(F)cc3F)n2Cc2ccccc2)n(C)c1=O | inactive: 108% |
| CCCNC(=O)NC1CC(C)(C)NC(C)(C)C1 | inactive: 116% |
| CCOC(=O)C1CCN(c2cc3c(cc2NC(=O)c2ccc(OC)c(OC)c2)n(C)c(=O)n3C)CC1 | inactive: 81% |
| CC1CCCCN1S(=O)(=O)c1ccc(F)c(C(=O)Nc2ccccc2C(F)(F)F)c1 (stereo not given) | inactive: 69% |
| Cc1cn2c(=O)cc(COc3cc(C)c(Cl)c(C)c3)nc2s1 | inactive: 130% |
| CCC(C)NC(=O)Cn1c(=O)n(CCCC(=O)NCc2ccc(C)cc2)c(=O)c2ccccc21 (stereo not given) | inactive: 74% |
| CCOc1ccc(NC(=O)CN(c2ccccc2OCC)S(=O)(=O)c2ccccc2)cc1 | inactive: 75% |
| CCOc1cc2sc(N3CCC(C(=O)Nc4ccc(C(C)C)cc4)CC3)nc2cc1Br | inactive: 81% |
| C=CCSc1nsc(N)n1 | inactive: 100% |
| Cc1cccc(CNC(=O)Cc2csc3ccccc23)c1 | inactive: 116% |
| CCOc1cc(/C=C2\SC(=S)N(CCCC(=O)O)C2=O)ccc1O | inactive: 85% |
| COc1ccc(S(=O)(=O)N2CCN(Cc3nc4ccc(C)cc4o3)CC2)cc1OC | inactive: 82% |
| Cc1cc(Cl)ccc1NS(=O)(=O)c1ccc2c(c1)CCN2S(C)(=O)=O | inactive: 80% |
| Cc1cc(=O)n(Cc2cccc(Br)c2)c2c1c(C)nn2-c1ccccc1 | inactive: 76% |
| CC(C)(C)Sc1cc(C(=O)O)sc1C(=O)O | inactive: 106% |
| Cc1ccc(Nc2cc(=O)[nH]c(=O)[nH]2)cc1C | inactive: 88% |
| COc1cccc(C(=O)N2CC(=O)Nc3ccc(C)cc3C2c2ccc(F)cc2)c1OC (stereo not given) | inactive: 140% |
| COc1ccc(NC(=O)CC2C(=O)N(c3ccc(OC)cc3)C(=O)N2C2CCCCC2)cc1 (stereo not given) | inactive: 90% |

| Structure (SMILES) | survival |
| --- | --- |
| Cc1c(Cl)cccc1-n1c(SCC(=O)NCc2ccccc2)nc2n[nH]c(C)c2c1=N | inactive: 134% |
| Cc1ccc(C(=O)N2c3ncnn3C3(CCCCC3)[C@@H]3CCCC[C@@H]32)cc1 | inactive: 81% |
| COc1cccc(OCC(=N)N)c1 | inactive: 123% |
| COc1ccc(Cl)cc1NC(=O)CSc1nnc(C)n2c1cc1sccc12 | inactive: 70% |
| CCCOc1ccc(CNC(=O)C(C)n2nc(C)n3c(cc4occc43)c2=O)cc1 (stereo not given) | inactive: 68% |
| COc1ccc(OC)c(CNC(=O)CCc2c(C)nc3c(c2C)c(=O)n(C)c(=O)n3C)c1 | inactive: 69% |
| Cc1ccc2oc(=O)c(-c3nc4ccc(C)cc4[nH]3)cc2c1 | inactive: 124% |
| CCC1CCCCN1S(=O)(=O)c1ccc(NC(=O)c2nc(SC)ncc2Cl)cc1 (stereo not given) | inactive: 81% |
| CCc1ccccc1NS(=O)(=O)c1ccc(-c2coc(C)n2)cc1 | inactive: 138% |
| Cc1oc2ncnc(N3CCCCC3)c2c1C(=O)Nc1cccc(Cl)c1C | inactive: 120% |
| Cc1nc2cc(-c3ccccc3)nn2c(C)c1CCC(=O)NCCc1ccccc1 | inactive: 88% |
| Cn1c2c(c(=O)n(C)c1=O)C(c1cc(Br)ccc1F)CC(=O)N2 (stereo not given) | inactive: 78% |
| Cc1cccc(C)c1NC(=O)c1c(C)oc2c1C1=NCCN1C=N2 | inactive: 82% |
| CCCOCc1cc(CN2CCN(c3cccc(Cl)c3)CC2)c(O)c2ncccc12 | inactive: 84% |
| COc1ccc(CC(=O)Nc2ccc(-c3nc4ccccc4s3)cc2Cl)cc1OC | inactive: 65% |
| COc1ccc(Nc2cc(C(=O)NCCCN(C)c3ccccc3)c3ccccc3n2)c(OC)c1 | inactive: 72% |
| Cc1ccc2[nH]c(CSc3nnc(NC(=O)COc4ccccc4C)s3)cc(=O)c2c1 | inactive: 127% |
| COC(=O)c1ccc(NC(=O)c2cc(S(=O)(=O)N3CCC(C)CC3)cn2C)cc1 | inactive: 131% |
| CCOC(=O)c1ccc(Nc2nc(N)c3cc(OC)c(OC)cc3n2)cc1 | inactive: 70% |
| Cc1cccc(CCNC(=O)c2ccc3c(c2)nc2n3CCOC2)c1 | inactive: 60% |
| Cn1c(=O)n(C)c2cc(S(=O)(=O)N3CCCCC3)ccc21 | inactive: 111% |
| CCn1cc(C(=O)NCCCN2CCC(C)CC2)c(=O)c2cc(S(=O)(=O)N(C)C3CCCCC3)ccc21 | inactive: 86% |
| Cc1nn(C)c2c1c(-c1ccccc1)cc(=O)n2C(C)C(=O)NCCc1ccc(Cl)cc1 (stereo not given) | inactive: 78% |

| Structure (SMILES) | survival |
| --- | --- |
| COc1ccc(S(=O)(=O)NCC(c2ccco2)N2CCN(c3ccccc3F)CC2)cc1OC (stereo not given) | inactive: 69% |
| CC(C)c1nc2ccc(C(=O)NCc3ccc(F)cc3)cc2o1 | inactive: 77% |
| COc1ccc(-c2ccc3c(N)c(C(=O)Nc4ccc(C)cc4C)sc3n2)cc1OC | inactive: 89% |
| CCc1cccc(NC(=O)C2CCCN2S(=O)(=O)c2ccc3c(c2)n(C)c(=O)c(=O)n3C)c1 (stereo not given) | inactive: 84% |
| CC1CCN(C(=O)c2ccccc2NC(=O)c2nsc3ccccc23)CC1 | inactive: 136% |
| CCOc1ccc(-c2cc(NC(=O)c3c(F)cccc3F)c(C(=O)OC)s2)cc1 | inactive: 65% |
| COc1ccccc1N1CCN(C(=O)c2nc(-c3ccc(C)cc3)n3c2CCCCC3)CC1 | inactive: 85% |
| COc1ccc(CNC(=O)CCc2c(C)nn(-c3ccc(N4CCCC4)nn3)c2C)c(OC)c1 | inactive: 71% |
| COCCn1c(SCc2ccncc2)nc2ccccc2c1=O | inactive: 101% |
| COc1ccc(-n2c(SCC(=O)Nc3cc(C)cc(C)c3)nc3c(oc4ccccc43)c2=O)cc1 | inactive: 95% |
| COC(=O)c1c(NC(=O)C(C)Oc2ccc(Cl)cc2Cl)sc2c1CCCC2 (stereo not given) | inactive: 57% |
| COc1ccc(NC(=O)c2cc(S(=O)(=O)N3CCCCC3)c[nH]2)cc1Cl | inactive: 85% |
| Cc1ccc(NC(=O)c2c(C)oc3ccc(O)c(CN4CCCCC4)c23)cc1 | inactive: 86% |
| Cc1cc(NC(=O)CC(C)C)cc(-c2nc3ncccc3o2)c1O | inactive: 69% |
| Cc1cc(C)c(/C=C/c2onc(C)c2S(=O)(=O)N2CCC(C(=O)NCC(C)c3ccccc3)CC2)c(C)c1 (stereo not given) | inactive: 115% |
| O=C(CCS(=O)(=O)c1cc2c3c(c1)CCN3C(=O)CC2)NCc1ccc(Cl)cc1 | inactive: 78% |
| COc1ccc(/C=C/c2nc(C#N)c(NC3CCCCC3)o2)cc1OC | inactive: 71% |
| Cc1ccc(CNC(=O)CCc2c(C)nn(-c3ccc(N4CCCC4)nn3)c2C)cc1 | inactive: 121% |
| CCc1cccc(C)c1Nc1c(-c2cccc(O)c2)nc2cnccn12 | inactive: 90% |
| CCOC(=O)C1=C(CN2CCN(c3ccccc3F)CC2)NC(=O)NC1c1ccc(OC)cc1 (stereo not given) | inactive: 67% |
| COC(=O)CSc1ccc2nnc(CCNS(=O)(=O)c3ccc(C)cc3)n2n1 | inactive: 87% |
| COc1ccccc1CNC(=O)Cn1c(-c2cccs2)cc2cc(F)ccc21 | inactive: 84% |
| CCOc1ccccc1NC(=O)Cn1nc2c3cc(F)ccc3n(Cc3cccc(C)c3)cc-2c1=O | inactive: 81% |

| Structure (SMILES) | survival |
| --- | --- |
| COc1ccc(CCNC(=O)c2cc(-c3ccc(Cl)cc3)on2)cc1OC | inactive: 82% |
| COc1cccc(NC(=O)CCc2nc(-c3cc(OC)c(OC)c(OC)c3)no2)c1 | inactive: 84% |
| COc1cc2c(C(=O)N3CCN(c4ccc(C)cc4)C(C)C3)cn(CC(C)C)c(=O)c2cc1OC (stereo not given) | inactive: 71% |
| Cc1nc2ccccn2c(=O)c1NC(=O)c1ccccc1Cl | inactive: 129% |
| CCOC(=O)c1ccc(NC(=O)c2cc3c(=O)n(C)c4ccccc4c3n2C)cc1 | inactive: 86% |
| O=C(N/N=C/c1ccc(OC(=O)c2ccco2)cc1)c1ccccn1 | inactive: 103% |
| Cc1ccc(C)c(NC(=O)C(=O)NCCc2csc(-c3cccc(F)c3)n2)c1 | inactive: 72% |
| Cn1c(=O)cc(SCC(=O)Nc2cccc(C#N)c2)c2ccc(Cl)cc21 | inactive: 80% |
| COc1ccc(N2CCN(C(=O)Cc3noc4ccc(C)cc34)CC2)cc1 | inactive: 76% |
| CCc1cc(S(=O)(=O)n2ccnc2)ccc1OC | inactive: 93% |
| Cc1ccc(CN2CCc3nc(N4CCN(C)CC4)ncc3C2)cc1 | inactive: 87% |
| O=C(CN1C2=NCCCN2c2ccccc21)c1cccs1 | inactive: 105% |
| CCc1ccc(NC(=O)Cn2ccn(-c3cccc(Cl)c3)c(=O)c2=O)cc1 | inactive: 87% |
| COc1ccc(C(=O)N2CCC(c3ccncc3)CC2)cc1OC | active: -6% |
| Cc1ccc(C)c(N2CCN(C(=O)c3ccc4c(c3)c(C)c(C)n4C)CC2)c1 | inactive: 102% |
| CCOc1ccccc1C1CC(=O)NC(C)=C1C(=O)OCc1ccc(C)cc1 (stereo not given) | inactive: 89% |
| Cc1nc2sccn2c(=O)c1S(=O)(=O)NCc1ccccc1 | inactive: 73% |
| COc1ccc(Nc2nnc(-c3ccc(C)c(S(=O)(=O)N4CCN(C)CC4)c3)c3ccccc23)cc1 | inactive: 74% |
| COC(=O)c1ccc(OC)c(CN2CCCN(Cc3ccc(C)cc3)S2(=O)=O)c1 | active: -3% |
| COc1cc2c(cc1OC)C(COc1ccc3c(C)cc(=O)oc3c1)N(C(=O)c1ccc(C)c(C)c1)CC2 (stereo not given) | inactive: 72% |
| COc1ccc(Cl)cc1C(=O)NCC(c1ccc(N(C)C)cc1)N1CCOCC1 (stereo not given) | inactive: 90% |
